# Measurements as given in the supplement of paper PMC3334620.
# Whole data set: some 33,000 sequences, median “E-score (-0.5 to 0.5)” near -0.012, cut for the highest 2% near 0.29. The list shows a part of the results.
# Molecular target: T1, Ybr033w (UniProt P38073)
# T1 sequence: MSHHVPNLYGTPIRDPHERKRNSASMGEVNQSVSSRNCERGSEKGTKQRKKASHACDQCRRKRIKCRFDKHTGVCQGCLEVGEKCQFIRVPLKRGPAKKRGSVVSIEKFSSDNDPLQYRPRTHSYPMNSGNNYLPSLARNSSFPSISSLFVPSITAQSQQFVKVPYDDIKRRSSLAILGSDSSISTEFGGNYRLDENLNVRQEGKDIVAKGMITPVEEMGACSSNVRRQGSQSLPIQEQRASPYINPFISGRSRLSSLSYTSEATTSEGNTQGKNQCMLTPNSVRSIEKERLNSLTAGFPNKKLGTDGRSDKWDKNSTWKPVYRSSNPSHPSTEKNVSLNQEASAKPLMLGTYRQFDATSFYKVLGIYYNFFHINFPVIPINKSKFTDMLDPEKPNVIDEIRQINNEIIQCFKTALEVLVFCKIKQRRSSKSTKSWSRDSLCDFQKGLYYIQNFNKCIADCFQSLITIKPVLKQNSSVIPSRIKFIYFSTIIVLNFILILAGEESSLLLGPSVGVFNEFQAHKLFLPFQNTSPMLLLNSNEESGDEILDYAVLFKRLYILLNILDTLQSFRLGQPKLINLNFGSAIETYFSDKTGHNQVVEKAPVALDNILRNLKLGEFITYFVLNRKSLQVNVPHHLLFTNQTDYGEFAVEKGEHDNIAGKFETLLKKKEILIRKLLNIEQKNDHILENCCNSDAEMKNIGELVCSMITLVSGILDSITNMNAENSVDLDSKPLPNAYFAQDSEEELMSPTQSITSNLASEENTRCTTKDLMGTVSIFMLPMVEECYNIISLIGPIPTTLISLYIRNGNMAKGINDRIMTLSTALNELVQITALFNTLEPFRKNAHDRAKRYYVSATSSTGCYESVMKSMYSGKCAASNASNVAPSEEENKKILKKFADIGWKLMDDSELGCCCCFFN
# Assay: PBM E-score (8-mer binding enrichment) (E-score (-0.5 to 0.5)); higher = stronger / more preferred TF binding; most listed sequences are background and not binding sites
# Conditions: protein concentration: 200 nM; construct: GST-full length
# Outline: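 PURExpress in vitro transcription/translation supplied GST-tagged yeast transcription factors, either full-length or DNA-binding domain. Applied at about 100-200 nM to universal all-10-mer Agilent arrays double-stranded by primer extension, the bound protein was detected with fluorescent anti-GST. E-scores, modified Wilcoxon-Mann-Whitney statistics, were given by the Universal PBM Analysis Suite to ungapped eight-base words pooled with their reverse complements after masliner normalisation.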
row,Sequence,PBM E-score
1,CTTGCATA,0.106
2,AGCAGATA,0.0418
3,GATACAAC,0.0648
4,ATTTACGG,0.166
5,CCACTAAC,-0.013
6,TGCATGAA,0.165
7,CACCGTCG,-0.0934
8,ATTTAGCC,0.117
9,CCATTTAC,0.207
10,ACCACTAT,0.111
11,AAAGAGGT,0.0471
12,ACCCAGCG,-0.255
13,ACTGAGGA,0.00029
14,AAGGGATT,0.0557
15,AGGCCGAA,-0.117
16,GACATTAC,0.164
17,ATGATGAA,0.192
18,CACATCCC,-0.0423
19,GGCGATAA,-0.0929
20,CATAGTGG,0.0351
21,AGAAGCAG,-0.0975
22,GACGAGGA,-0.0297
23,ACAAGGTG,0.0226
24,AGCCGTGG,-0.15

row,Sequence,PBM E-score
1,CTCTGGTA,0.125
2,AGATCGTC,-0.149
3,ACCAACTG,-0.0123
4,TATCGCGA,0.132
5,CCTTGGGA,0.021
6,ACTTACCA,0.0956
7,AGTCGAGG,-0.128
8,TAATAGAA,0.198
9,ACCCCGAC,-0.383
10,CGGGCTAA,-0.196
11,AAAGTCCA,0.0646
12,GAACGAAC,0.117
13,ACTATCCT,0.125
14,AGGGCTAG,-0.15
15,AATCCCTA,0.0935
16,AGCCTGGA,-0.199
17,AGACAGAC,0.151
18,AGGGTCAG,-0.226
19,CTCAACTA,0.0837
20,GTAGACTA,-0.131
21,ATATAGAA,0.169
22,GTCCAGAA,-0.051
23,GAGATGGC,0.00969
24,CACTTTCG,0.0443

row,Sequence,PBM E-score
1,CACAGTTC,0.103
2,AGGTGGGG,-0.0216
3,GTCCCTGA,-0.196
4,CATAGCGA,-0.0889
5,CGTCACCC,-0.215
6,AAAATGGC,0.0583
7,CCGGCAAC,-0.195
8,CAAGTAGA,-0.00549
9,AGGGACGA,-0.16
10,TCTTACCA,0.0684
11,TGCATTAA,0.256
12,CTAGGAAA,0.0651
13,CCTTATGC,0.0726
14,GAGCTATC,-0.109
15,CCGTCCCG,-0.13
16,ATGACTGG,-0.17
17,GCGGCGGA,0.0283
18,CCTACCGC,-0.292
19,AGGTGTTC,-0.169
20,CAGGGGGG,-0.39
21,AGCTATTG,0.144
22,AAGAAGAA,0.185
23,GCGATATA,0.0771
24,ATGTCGCA,0.0279

row,Sequence,PBM E-score
1,ATACGCGC,0.00516
2,AGTCGTTG,-0.271
3,CGGAACAC,0.16
4,CAGAGGGA,-0.0678
5,TAATGCCA,0.0326
6,GCCTCAAC,-0.107
7,CGATGCAG,-0.179
8,ATACTTAC,0.159
9,GAATCAAA,0.0784
10,ACTTCCTG,0.0249
11,AGTTGTCA,0.132
12,TAGACACA,-0.00152
13,TCTATCCA,0.0807
14,ATAAGGGG,-0.164
15,ACTTATCA,0.0271
16,CCAAAGTC,-0.0294
17,CGTTTTGC,-0.146
18,GGCTGGAA,-0.0219
19,ATGTGTCC,-0.0776
20,AACTAAGT,0.0846
21,CGTGAGAG,-0.375
22,GGCCAAGA,-0.16
